Source: ChEMBL document CHEMBL4888484, “Replenishing the malaria drug discovery pipeline: Screening and hit evaluation of the MMV Hit Generation Library 1 (HGL1) against asexual blood stage Plasmodium falciparum ,using a nano luciferase reporter read-out” (2022)
The whole screen tested about 150,000 compounds, of which about 540 (0.36%) showed an effect of 50% or more. Some of the results follow.

System: Plasmodium falciparum
Experiment: Primary screen in NF54 nanoGlo assay, in single point, at 2uM, 72h; a lower Z score goes with more inhibition
Type: functional, Erythrocyte
Settings: timepoint 72 hour

SMILES	% Inhibition [%]	Z score
c1cnc(NCCc2noc(C3CCCC3)n2)nc1	-6	1.09
Cn1ccc(NC(=O)CNC(=O)C(C)(C)C)n1	6	-0.71
COc1ccc2c(c1)N1CCN(CC(=O)N3CCOCC3)CC1C(C(=O)NCc1ccc(F)cc1)C2 (centres undefined)	-4	0.53
Cn1ncc2c(=O)n(Cc3nc(COc4ccc(Cl)c(F)c4)no3)cnc21	-2	0.29
Cc1cc(NCc2nc3cc(F)ccc3[nH]2)nc(N)n1	6	-1.16
CN(Cc1nccn1C)c1nccc(N2CCN[C@@H]3CS(=O)(=O)C[C@@H]32)n1	-9	1.06
CCc1nnsc1C(=O)N1CCC2(CC1)c1ccccc1C[C@@H]2O	7	-1.32
Cc1c(CNC2CCCCCCC2)c(C(=O)O)c(C)n1Cc1ccccc1	-7	0.82
O=S1(=O)CCCN1Cc1nnnn1-c1ccccc1	9	-1.26
O=C(C1CCCCC1)N1CCc2ccccc21	-7	0.93
Cc1ccc2[nH]c(C(=O)N3CCC[C@@]4(C3)C(=O)Nc3ccccc34)c(C)c2c1	5	-0.98
Cc1noc(C)c1CC(=O)Nc1cccc2[nH]ccc12	-3	0.46
O=S(=O)(c1ccc(Br)cc1Cl)N(C1CCCC1)C1CC1	-7	0.91
Cc1nn(C)c2nc(N3CCN4CCCC[C@H]4C3)sc12	-11	2.23
C[C@@H](NC(=O)NC1CCc2[nH]cnc2C1)c1ccc(F)cc1 (some centres undefined)	-10	1.89
COc1ccccc1N1CCN(C(=O)Cn2ncn3nc(-c4ccccc4)cc3c2=O)CC1	-4	0.81
Cc1c(S(=O)(=O)c2ccc(Cl)cc2)c(N)n(CCN2CCOCC2)c1C	-16	2.05
C#CC[C@H](OC(=O)c1cccc2cn[nH]c12)c1ccccn1	-18	2.59
Cc1cnc(NC2CCS(=O)(=O)CC2)nc1N(C)C	5	-0.71
CCCN1CCC(CC(=O)N2CCC(Oc3ncccn3)CC2)CC1	5	-0.84
O=C(c1ccc2cc[nH]c2c1)N1CCC[C@@](F)(c2nc(C3CC3)no2)C1	-2	0.28
C=CCN1CC[C@H](N(C)c2nccc(OC)n2)C1=O	4	-0.71

SMILES	% Inhibition [%]	Z score
CCOC1CC(n2nnnc2N2CC[C@H](OCC)C2)C12CCCC2 (some centres undefined)	-12	2.43
CCn1ncc(Br)c1C(=O)N(C)CCc1nccs1	13	-1.49
OC1CCCN(CC2CCC=CCCC2)CC1 (centres undefined)	-10	1.43
Cc1ccccc1CN1C(=O)OC(c2ccc(NC(=O)c3cccs3)cc2)C1C(=O)NCc1ccc(F)cc1 (centres undefined)	-7	1.28
Cc1cc(C)nc(Nc2ccc3cn[nH]c3c2)n1	-4	0.52
CCc1ccc(-c2cc3c(=O)n(Cc4noc(CN5CCN(C)CC5)n4)ccn3n2)cc1	-9	1.23
Cc1nn(C)c(NC(=O)C(=O)c2ccc(Br)cc2)c1C	-7	0.87
O=C1NCC(C2CCOC2)C(=O)N1Cc1ccccc1C(F)(F)F (centres undefined)	0	-0.04
CO/C(=N/C(=O)c1ccccc1Cl)NCCN1CCCCC1	-12	1.82
C1CCC2(CC1)CC(NCC1COC1)C2	1	-0.13
Cc1ccc([C@H](CNC(=O)c2cccs2)N2CCCCC2)cc1	-16	2.11
CC(C)c1nnc(Cn2nc(C(F)(F)F)c3cnccc32)o1	-16	2.98
Cc1oc2ncnc(NCCNc3ncccc3C#N)c2c1C	-17	2.61
CCn1ccc(C(=O)N2CC(Oc3nc4c(C)cccc4s3)C2)n1	-7	1.02
CN(C)[C@H]1CCN(C(=O)c2cn(Cc3cccc4ccccc34)nn2)C1	-21	1.86
Cc1cc(CN2CCN(C(=O)c3cccc4cc[nH]c34)CC2)on1	-5	0.68
N#Cc1ccc(CO[C@@H](CN2CCN(C(=O)COCc3ccccc3)CC2)c2cccc(N3CCCC3)c2)cc1	1	-0.07
Cc1oc(C(C)C)nc1C(=O)NCCCN1CCOCC1	-9	1.15
CC(C)C[C@H](NC(=O)N1CC(O)C1)c1cccnc1	-19	2.06
CC(C)(C)C(=O)N[C@@H]1c2ccccc2C2(CCNCC2)[C@H]1OCc1cccnc1	-7	0.9
O=S(=O)(c1cnc(N2CCCCC2)c(Cl)c1)N1CCCC1	-1	0.19
C=C(C)COc1ccccc1NC(=O)Cc1cc(C)no1	10	-1.27

SMILES	% Inhibition [%]	Z score
O=C(NCCCN1CCCC1=O)c1ccc(Cl)o1	2	-0.36
Cc1n[nH]c(C)c1CC(=O)N[C@H](c1ncc[nH]1)C(C)C	3	-0.36
COc1ccc(C2CN(C(=O)c3ccccc3)CC2C(=O)NCc2ccc(F)cc2)cc1 (centres undefined)	-8	1.19
Cn1c(=O)n([C@@H]2CCN(C(=O)COc3ccc(F)cc3)C2)c2ncccc21	4	-0.58
Nc1nc2c(c(C(=O)N3CC(c4ccccn4)C3)n1)CCCC2	-7	1.5
CCN(CC)CCNC(=O)c1cc(N2CCCCCC2)ccn1	7	-1.13
O=C(NC[C@H]1Cc2ccccc21)Nc1cc(C(F)(F)F)c[nH]c1=O	-13	1.17
CCCN(C)C(=O)c1coc(CN2CCN(c3ncccn3)CC2)n1	-7	1.43
CCc1onc(C)c1NC(=O)N1CCC(C)(COC)CC1	-3	0.32
COc1ccc([C@H]2CC(=O)Nc3ccsc32)cc1	-7	0.85
CCC(C)(C)[C@@H]1CCCN1C(=O)Cc1c(C)n[nH]c1C	-1	0.14
CCc1c(C)sc(NC(=O)[C@@H]2CCCO2)c1C(=O)NC1CCCCC1	-23	2.1
Cc1ccc(OC(=O)c2ccncc2)c(-n2nc3ccccc3n2)c1	-3	0.61
O=C(Nc1ccc2c(n1)CCC2)N1CCC(OC2CCC2)CC1	-4	0.59
CCN(C[C@H]1CCCO1)C(=O)Nc1ccc(-c2cn[nH]c2)cc1	-13	1.84
CC(C)(C)OC(=O)n1ccc2c(C(=O)c3ccccc3)cccc21	-7	0.97
O=C(NCc1cccnc1)c1cc(N2CC[C@@H]3CCCC[C@H]3C2)ccn1	-9	0.87
Cc1c[nH]c(CN2CCC(c3cc(N4CCCC4)ncn3)CC2)c(C)c1=O	-7	1.31
Cc1ccc(CNC(=O)Cc2nc3cc(Cl)ccc3[nH]2)s1	-8	1.1
NS(=O)(=O)CC1CCN(C(=O)N[C@H]2C[C@@H]2C(F)(F)F)C1 (some centres undefined)	-10	1.49
O=C(Nc1cccc(-c2csnn2)c1)c1ccccc1Cl	-11	1.71
O=C(NCc1ccco1)c1ccc(CN2C(=O)CCn3nc(-c4ccccc4)cc32)cc1	28	-3.27

SMILES	% Inhibition [%]	Z score
CCc1noc(CS(=O)(=O)Cc2coc(-c3cccs3)n2)n1	-18	1.67
CC(C)(C)OC(=O)NCc1cc(C(=O)NCCc2c[nH]c3ccc(F)cc23)co1	1	-0.18
C[C@]1(C(=O)NCc2nc(-c3ccc(F)cc3)c[nH]2)CC1(Cl)Cl	-12	1.17
CCc1cc(C(=O)N2CCCC[C@H]2c2cc[nH]n2)ccc1O	-8	0.91
CN(Cc1ccccn1)C(=O)C[C@@H](c1cccc(O)c1)c1ccccc1Cl	-18	1.6
c1cc2nonc2cc1CN(CCN1CCCCC1)C[C@H]1CCCN(C2CCCC2)C1	0	-0.05
CCC(Oc1ccccc1C)c1nnc(C2C3Cc4cc(Cl)ccc4C32)o1 (centres undefined)	2	-0.28
CC(C)(O)Cn1nnnc1C=Cc1ccccc1	-10	0.91
C#C[C@H](C)N(C)Cc1c[nH]c(C(=O)OC)c1	41	-5.3
Cc1cc(C(=O)N[C@H]2C[C@@](C)(O)C2)ns1	8	-0.91
O=C1CC(C[C@H]2CCCO2)=NN1c1cccc(F)c1Cl	-6	0.81
CC(C)N1CC[C@H](CNC(=O)c2cccc(OCC(F)(F)F)n2)C1	2	-0.39
Cc1noc(C)c1CCCNc1ccc2cc[nH]c2n1	-2	0.32
CCCCNC(=O)Cn1ccc(=O)[nH]c1=O	-7	1.1
C#CCN(CC#CC)C(=O)NCc1ccco1	-8	1.12
O=C(Nc1ccccc1)c1c(F)c(F)c2c(c1F)N(Cc1cccnc1)CCS2(=O)=O	-4	0.72
Cc1cc2c(NC3CC[S+]([O-])C3)nccn2n1 (centres undefined)	3	-0.38
CC1CN(C(=O)C2CCN(C(=O)CCc3ccsc3)CC2)CC(C)O1 (centres undefined)	1	-0.11
O=C(Nc1cccnc1)C1(O)CCOCC1	5	-0.66
Cc1ccnn1CC(=O)N1CCC2(CC1)C[C@H](c1ccccc1)C(=O)N2C	-4	0.67
Cc1ccc(CNS(=O)(=O)c2cc(-c3nc(C)c(C)s3)cs2)cc1	-22	3.24
